Laboratory results: PMC9231623
Residue numbers refer to the chain shown, from its start. No constants are given. Whether binding was seen depends on the method and setting. Binding seen in cells or lysates may run through a third protein. Some entries that bind do so weakly or less than the wild type. For part of these data: Sequences can lack the tags named with a protein.

Chains of the proteins cited; added tags and fusions are not shown. Residues count along the entry.
UniProt Q13596: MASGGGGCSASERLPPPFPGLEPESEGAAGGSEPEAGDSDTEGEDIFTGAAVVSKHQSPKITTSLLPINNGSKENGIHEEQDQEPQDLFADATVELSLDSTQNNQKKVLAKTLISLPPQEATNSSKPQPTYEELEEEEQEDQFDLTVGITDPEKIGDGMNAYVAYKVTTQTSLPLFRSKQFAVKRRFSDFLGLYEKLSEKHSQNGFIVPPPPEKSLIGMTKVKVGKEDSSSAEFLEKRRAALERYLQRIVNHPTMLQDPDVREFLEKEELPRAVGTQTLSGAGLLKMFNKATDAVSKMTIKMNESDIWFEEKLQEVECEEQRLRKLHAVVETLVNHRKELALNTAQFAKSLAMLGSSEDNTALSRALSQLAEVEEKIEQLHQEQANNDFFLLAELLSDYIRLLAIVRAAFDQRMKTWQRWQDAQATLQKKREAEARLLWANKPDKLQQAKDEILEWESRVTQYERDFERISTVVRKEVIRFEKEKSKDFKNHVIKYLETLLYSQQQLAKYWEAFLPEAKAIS
UniProt P11717, residues 41-2491: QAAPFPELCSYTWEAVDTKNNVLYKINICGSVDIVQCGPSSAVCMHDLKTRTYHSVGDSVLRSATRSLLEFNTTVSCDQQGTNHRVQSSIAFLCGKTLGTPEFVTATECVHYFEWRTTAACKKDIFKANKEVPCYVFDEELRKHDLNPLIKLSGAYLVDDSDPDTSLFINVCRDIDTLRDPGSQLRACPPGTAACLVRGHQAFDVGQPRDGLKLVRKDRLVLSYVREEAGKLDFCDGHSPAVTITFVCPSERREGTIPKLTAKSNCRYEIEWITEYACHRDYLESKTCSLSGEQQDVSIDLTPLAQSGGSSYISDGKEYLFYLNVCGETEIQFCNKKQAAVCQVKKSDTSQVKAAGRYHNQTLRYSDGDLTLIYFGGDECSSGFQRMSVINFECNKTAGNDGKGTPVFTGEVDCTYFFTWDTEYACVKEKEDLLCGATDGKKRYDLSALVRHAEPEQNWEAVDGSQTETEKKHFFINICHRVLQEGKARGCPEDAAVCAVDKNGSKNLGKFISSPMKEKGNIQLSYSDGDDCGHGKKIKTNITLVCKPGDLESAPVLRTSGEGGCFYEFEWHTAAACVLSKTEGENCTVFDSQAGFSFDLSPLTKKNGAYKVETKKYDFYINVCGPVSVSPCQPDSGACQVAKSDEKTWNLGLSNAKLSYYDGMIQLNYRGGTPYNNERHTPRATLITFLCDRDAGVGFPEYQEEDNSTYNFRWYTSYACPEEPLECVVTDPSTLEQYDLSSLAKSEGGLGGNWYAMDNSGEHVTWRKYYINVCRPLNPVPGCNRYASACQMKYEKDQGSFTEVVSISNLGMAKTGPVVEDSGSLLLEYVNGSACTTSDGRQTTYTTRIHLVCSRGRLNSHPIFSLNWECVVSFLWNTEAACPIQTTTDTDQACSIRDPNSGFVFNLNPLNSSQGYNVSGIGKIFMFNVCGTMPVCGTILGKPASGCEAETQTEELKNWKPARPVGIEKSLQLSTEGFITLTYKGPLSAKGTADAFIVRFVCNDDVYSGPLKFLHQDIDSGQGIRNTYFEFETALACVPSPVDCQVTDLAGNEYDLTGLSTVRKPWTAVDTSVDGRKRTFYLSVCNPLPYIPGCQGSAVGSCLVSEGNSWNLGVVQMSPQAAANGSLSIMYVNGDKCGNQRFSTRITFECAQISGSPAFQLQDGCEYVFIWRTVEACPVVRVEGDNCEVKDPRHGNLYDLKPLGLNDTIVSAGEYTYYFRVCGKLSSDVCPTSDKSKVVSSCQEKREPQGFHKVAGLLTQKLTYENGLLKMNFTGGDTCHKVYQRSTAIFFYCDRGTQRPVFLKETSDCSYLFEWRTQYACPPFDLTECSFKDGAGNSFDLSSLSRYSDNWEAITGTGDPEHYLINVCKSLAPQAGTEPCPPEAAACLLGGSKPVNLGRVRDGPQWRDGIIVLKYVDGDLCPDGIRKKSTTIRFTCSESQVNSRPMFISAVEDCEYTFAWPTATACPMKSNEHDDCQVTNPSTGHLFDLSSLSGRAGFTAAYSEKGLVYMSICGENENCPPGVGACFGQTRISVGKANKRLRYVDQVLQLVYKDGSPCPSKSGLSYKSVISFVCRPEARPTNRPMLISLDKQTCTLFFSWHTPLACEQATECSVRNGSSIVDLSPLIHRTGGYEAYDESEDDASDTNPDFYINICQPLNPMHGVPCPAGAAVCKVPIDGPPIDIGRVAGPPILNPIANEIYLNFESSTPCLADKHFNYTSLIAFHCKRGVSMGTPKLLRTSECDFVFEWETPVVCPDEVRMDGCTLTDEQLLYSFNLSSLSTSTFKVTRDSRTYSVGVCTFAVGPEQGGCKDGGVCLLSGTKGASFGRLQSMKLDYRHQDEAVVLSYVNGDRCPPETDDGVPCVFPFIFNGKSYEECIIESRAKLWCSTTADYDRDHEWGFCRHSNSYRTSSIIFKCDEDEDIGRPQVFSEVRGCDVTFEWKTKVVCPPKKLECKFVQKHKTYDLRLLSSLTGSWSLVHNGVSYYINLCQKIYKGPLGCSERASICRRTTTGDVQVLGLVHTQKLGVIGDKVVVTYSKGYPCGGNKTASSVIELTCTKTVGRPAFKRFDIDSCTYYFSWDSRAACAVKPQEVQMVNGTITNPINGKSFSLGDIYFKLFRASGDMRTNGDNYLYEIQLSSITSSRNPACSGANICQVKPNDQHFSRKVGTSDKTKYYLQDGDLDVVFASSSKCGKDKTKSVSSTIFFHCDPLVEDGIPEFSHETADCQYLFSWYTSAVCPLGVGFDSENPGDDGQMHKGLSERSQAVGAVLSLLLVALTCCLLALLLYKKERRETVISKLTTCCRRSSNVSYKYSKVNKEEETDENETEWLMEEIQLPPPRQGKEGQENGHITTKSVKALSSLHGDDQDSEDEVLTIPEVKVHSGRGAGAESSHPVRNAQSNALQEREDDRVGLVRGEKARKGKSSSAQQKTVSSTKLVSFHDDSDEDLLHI
UniProt O14786, residues 22-923: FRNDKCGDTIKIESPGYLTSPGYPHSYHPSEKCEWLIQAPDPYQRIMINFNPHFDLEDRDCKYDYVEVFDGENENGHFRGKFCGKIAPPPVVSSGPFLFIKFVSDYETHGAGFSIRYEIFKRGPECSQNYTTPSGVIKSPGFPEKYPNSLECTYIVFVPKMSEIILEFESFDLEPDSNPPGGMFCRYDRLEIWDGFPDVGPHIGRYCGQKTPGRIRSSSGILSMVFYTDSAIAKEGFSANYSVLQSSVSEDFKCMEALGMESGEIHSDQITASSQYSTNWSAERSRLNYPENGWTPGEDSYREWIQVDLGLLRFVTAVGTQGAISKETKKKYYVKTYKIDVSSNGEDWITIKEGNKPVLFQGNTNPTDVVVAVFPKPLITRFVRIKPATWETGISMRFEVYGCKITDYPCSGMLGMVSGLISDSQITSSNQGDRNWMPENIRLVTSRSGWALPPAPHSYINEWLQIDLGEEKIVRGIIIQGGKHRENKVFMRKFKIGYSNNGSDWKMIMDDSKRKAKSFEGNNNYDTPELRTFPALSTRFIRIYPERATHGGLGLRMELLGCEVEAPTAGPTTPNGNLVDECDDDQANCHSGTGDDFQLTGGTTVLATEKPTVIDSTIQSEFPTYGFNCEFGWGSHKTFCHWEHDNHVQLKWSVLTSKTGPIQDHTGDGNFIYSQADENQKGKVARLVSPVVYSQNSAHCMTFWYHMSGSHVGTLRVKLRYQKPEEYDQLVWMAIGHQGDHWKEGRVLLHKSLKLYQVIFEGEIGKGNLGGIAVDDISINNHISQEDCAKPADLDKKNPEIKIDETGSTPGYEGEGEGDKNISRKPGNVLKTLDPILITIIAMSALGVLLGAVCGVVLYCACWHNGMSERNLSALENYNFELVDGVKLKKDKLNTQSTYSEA

Columns and labels:
GFP-tagged SNX2 = molecular target: T1, GFP-tagged SNX2 (UniProt O60749); experiment: co-IP; GFP-nanotrap (GFP trap, ChromoTek) of lysates of HEK293T cells 48 h after transfection; 50 mM Tris-HCl, 0.5% Nonidet P-40, protease inhibitors; quantitative Western blot
T1 sequence: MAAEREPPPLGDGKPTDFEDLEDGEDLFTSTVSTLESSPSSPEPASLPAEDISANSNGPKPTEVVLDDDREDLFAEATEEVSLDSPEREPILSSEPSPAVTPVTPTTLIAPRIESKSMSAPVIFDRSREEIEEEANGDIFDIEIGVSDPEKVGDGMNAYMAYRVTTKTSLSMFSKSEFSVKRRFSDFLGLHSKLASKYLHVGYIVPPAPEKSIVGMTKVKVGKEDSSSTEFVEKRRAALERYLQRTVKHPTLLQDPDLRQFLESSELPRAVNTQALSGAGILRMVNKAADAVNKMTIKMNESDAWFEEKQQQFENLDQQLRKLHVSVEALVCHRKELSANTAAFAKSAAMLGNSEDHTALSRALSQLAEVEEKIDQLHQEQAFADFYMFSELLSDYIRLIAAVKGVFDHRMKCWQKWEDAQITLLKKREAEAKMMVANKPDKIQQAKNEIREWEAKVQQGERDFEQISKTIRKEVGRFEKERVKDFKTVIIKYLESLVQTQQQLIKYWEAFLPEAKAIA

GFP-tagged SNX32 = molecular target: T2, GFP-tagged SNX32 (UniProt Q86XE0); experiment: as above
T2 sequence: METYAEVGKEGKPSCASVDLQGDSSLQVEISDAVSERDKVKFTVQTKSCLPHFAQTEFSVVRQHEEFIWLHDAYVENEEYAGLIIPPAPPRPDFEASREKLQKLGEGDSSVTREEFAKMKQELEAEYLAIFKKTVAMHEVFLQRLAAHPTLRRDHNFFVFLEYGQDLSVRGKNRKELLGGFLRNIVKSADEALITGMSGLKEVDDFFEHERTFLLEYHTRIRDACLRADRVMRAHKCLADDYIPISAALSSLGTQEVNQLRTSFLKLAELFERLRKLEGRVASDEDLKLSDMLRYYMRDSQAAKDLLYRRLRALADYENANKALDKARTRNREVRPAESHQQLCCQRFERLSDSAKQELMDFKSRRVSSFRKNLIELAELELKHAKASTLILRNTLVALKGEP

GFP-tagged SNX5 [1] = molecular target: T3, GFP-tagged SNX5 (UniProt Q9Y5X3); experiment: as above
T3 sequence: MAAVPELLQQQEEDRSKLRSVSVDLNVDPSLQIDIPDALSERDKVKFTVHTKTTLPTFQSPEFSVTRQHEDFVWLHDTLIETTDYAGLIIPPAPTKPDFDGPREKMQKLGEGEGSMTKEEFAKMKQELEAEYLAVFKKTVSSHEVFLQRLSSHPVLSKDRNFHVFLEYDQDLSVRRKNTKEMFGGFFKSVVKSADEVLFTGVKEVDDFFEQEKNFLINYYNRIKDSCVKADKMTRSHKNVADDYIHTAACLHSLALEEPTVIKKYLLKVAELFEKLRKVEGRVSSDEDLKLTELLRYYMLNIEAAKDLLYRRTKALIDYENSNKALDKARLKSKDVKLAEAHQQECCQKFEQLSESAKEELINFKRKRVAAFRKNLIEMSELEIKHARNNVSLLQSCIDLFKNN

GFP-tagged SNX6 [2] = molecular target: T4, GFP-tagged SNX6 (UniProt Q9UNH7); experiment: as above
T4 sequence: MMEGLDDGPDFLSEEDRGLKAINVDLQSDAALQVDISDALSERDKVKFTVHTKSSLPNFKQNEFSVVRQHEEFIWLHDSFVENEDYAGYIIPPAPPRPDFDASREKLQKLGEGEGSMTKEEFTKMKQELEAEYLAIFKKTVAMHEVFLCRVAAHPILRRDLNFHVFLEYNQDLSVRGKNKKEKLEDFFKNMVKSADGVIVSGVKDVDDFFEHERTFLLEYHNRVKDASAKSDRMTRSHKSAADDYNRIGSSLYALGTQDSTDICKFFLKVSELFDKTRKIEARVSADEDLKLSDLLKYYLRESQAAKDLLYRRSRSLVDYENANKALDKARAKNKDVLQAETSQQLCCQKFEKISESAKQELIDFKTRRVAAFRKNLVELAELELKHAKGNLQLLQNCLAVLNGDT

GFP-tagged SNX5 [3] = molecular target: T3, GFP-tagged SNX5; experiment: co-IP
GFP-tagged SNX6 [4] = molecular target: T4, GFP-tagged SNX6; experiment: co-IP
GFP-tagged SNX1 = GFP-tagged SNX1 (UniProt Q13596); experiment: co-IP; GFP-nanotrap (GFP trap, ChromoTek) of lysates of HEK293T cells 48 h after transfection; 50 mM Tris-HCl, 0.5% Nonidet P-40, protease inhibitors; quantitative Western blot
[5] = molecular target: T5, GFP-tagged SNX5 F136D mutant (UniProt Q9Y5X3); experiment: as above
T5 sequence: T3 sequence with F136D

binding (GFP-tagged SNX2)	binding (GFP-tagged SNX32)	binding (GFP-tagged SNX5 [1])	binding (GFP-tagged SNX6 [2])	binding (GFP-tagged SNX5 [3])	binding (GFP-tagged SNX6 [4])	binding (GFP-tagged SNX1)	binding [5]	Substance
no binding	binds	binds	binds	–	–	–	–	cation-independent mannose 6-phosphate receptor (CI-MPR), endogenous (from UniProt P11717 41-2491)
no binding	binds	binds	binds	binds	binds	no binding	no binding	endogenous Neuropilin-1 (NRP1) (from UniProt O14786 22-923) (receptor)
